Test results published in the supplement of paper PMC7826260.
The list shows a part of the results. Cleavage of a single-stranded DNA pool by Rep nickase domains was read by sequencing for 1 h at 37 °C with 3 µM enzyme; only the middle of the 90-letter strands is printed. Uncut reads are compared with the no-enzyme pool on a log2 scale; strong cutting gives strongly negative numbers. There is no active / inactive call. Reads are scaled to the total; uncut strands gain when others are lost, and binding without cutting may add a little.

Tests used:
Assay in all cases: uncleaved DNA left, log2 of reads against the no-enzyme library (log2 ratio); higher = less cleavage (more negative = more Rep cleavage of the k-mer); sequences stand for … in CTCGTCCG…ACCGGAGA
[1] = tested on: T1, Rep nickase domain of Muscovy duck circovirus
T1 sequence (residues 1-111, tag not shown): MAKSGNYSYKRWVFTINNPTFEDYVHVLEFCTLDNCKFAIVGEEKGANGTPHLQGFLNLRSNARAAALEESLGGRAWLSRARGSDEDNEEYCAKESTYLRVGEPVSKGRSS
Description: (§1)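 A pool of 90-nt single-stranded DNAs with seven random bases just before the constant AC of the nick site (name = the seven bases) was cut by 3 µM recombinant His6-SUMO-tagged Rep nickase domain (300 nM DNA, 50 mM HEPES pH 8.0, 50 mM NaCl, 1 mM MnCl2, 1 h, 37 °C, three replicates). Uncut DNA was amplified and sequenced.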

[2] = tested on: T2, Rep nickase domain of banana bunchy top virus
T2 sequence (residues 1-94, tag not shown): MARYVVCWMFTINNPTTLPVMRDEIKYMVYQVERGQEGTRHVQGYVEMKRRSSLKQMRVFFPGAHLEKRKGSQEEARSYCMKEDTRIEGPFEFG
Description: as §1

[3] = tested on: T3, Rep nickase domain of cabbage leaf curl virus
T3 sequence (residues 1-116, tag not shown): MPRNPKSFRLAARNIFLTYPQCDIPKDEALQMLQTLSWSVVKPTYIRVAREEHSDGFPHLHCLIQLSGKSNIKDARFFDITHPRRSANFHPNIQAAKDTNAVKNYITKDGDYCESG
Description: as §1

[4] = tested on: T4, Rep nickase domain of chickpea chlorotic dwarf virus
T4 sequence (residues 1-124, tag not shown): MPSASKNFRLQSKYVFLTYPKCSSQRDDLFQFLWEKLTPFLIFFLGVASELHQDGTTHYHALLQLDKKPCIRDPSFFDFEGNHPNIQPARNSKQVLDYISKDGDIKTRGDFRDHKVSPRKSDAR
Description: as §1

[5] = tested on: T5, Rep nickase domain of faba bean necrotic yellows virus
T5 sequence (residues 1-98, tag not shown): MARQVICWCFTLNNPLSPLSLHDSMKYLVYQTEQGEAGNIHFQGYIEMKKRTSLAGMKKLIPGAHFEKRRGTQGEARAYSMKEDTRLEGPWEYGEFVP
Description: as §1

[6] = tested on: T6, Rep nickase domain of maize striate mosaic virus
T6 sequence (residues 1-117, tag not shown): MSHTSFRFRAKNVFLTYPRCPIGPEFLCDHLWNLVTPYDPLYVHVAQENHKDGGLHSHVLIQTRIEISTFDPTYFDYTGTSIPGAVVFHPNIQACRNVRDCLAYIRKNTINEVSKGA
Description: as §1

[7] = tested on: T7, Rep nickase domain of porcine circovirus 2
T7 sequence (residues 2-116, tag not shown): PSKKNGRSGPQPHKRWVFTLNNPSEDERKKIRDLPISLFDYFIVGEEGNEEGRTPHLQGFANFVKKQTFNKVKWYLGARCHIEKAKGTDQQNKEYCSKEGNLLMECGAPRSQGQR
Description: as §1

[8] = tested on: T8, Rep nickase domain of tomato golden mosaic virus
T8 sequence (residues 1-124, tag not shown): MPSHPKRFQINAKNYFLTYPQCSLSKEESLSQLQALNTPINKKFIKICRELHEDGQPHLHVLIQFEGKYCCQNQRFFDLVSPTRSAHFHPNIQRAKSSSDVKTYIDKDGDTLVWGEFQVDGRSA
Description: as §1

[9] = tested on: T9, Rep nickase domain of tomato yellow leaf curl virus
T9 sequence (residues 1-136, tag not shown): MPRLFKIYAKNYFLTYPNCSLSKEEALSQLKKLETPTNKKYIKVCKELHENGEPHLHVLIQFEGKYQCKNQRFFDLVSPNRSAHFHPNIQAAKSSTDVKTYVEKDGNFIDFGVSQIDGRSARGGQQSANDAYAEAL
Description: as §1

[10] = tested on: T10, Rep nickase domain of wheat dwarf virus
T10 sequence (residues 1-137, tag not shown): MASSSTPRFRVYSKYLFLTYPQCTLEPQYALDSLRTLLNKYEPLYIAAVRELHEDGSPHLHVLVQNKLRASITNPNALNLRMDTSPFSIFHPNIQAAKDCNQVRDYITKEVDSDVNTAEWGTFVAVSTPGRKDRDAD
Description: as §1

Sequence | uncleaved DNA left (log2) [1] | uncleaved DNA left (log2) [2] | uncleaved DNA left (log2) [3] | uncleaved DNA left (log2) [4] | uncleaved DNA left (log2) [5] | uncleaved DNA left (log2) [6] | uncleaved DNA left (log2) [7] | uncleaved DNA left (log2) [8] | uncleaved DNA left (log2) [9] | uncleaved DNA left (log2) [10]
TAACTAG | 0.0889 | 0.1 | -0.798 | -1.2 | -0.0571 | -1.34 | 0.141 | 0.0574 | -0.0121 | -0.0198
CAAAGGA | 0.0559 | -0.0512 | 0.0677 | 0.201 | 0.0545 | -0.313 | 0.0841 | 0.0277 | -0.0716 | -0.00325
GGCAGCA | 0.0523 | 0.0647 | 0.557 | 1.25 | 0.0389 | 1.37 | 0.114 | 0.0781 | 0.0722 | 0.133
GCCACCA | 0.0127 | 0.0339 | 0.096 | -0.31 | 0.0846 | 0.215 | -0.186 | 0.0335 | 0.0984 | 0.0858
GCCGCTG | 0.00273 | -0.0699 | 0.0207 | 0.608 | -0.078 | 1.13 | -0.0429 | -0.0685 | -0.234 | 0.015
GCGCTCG | 0.045 | 0.0823 | -0.316 | -0.316 | 0.133 | -0.546 | 0.154 | 0.0156 | -0.0309 | -0.0396
ACGCCGG | -0.0069 | 0.0252 | -0.238 | -0.0192 | 0.0505 | -0.568 | 0.134 | 0.0442 | -0.0128 | -0.0118
CCGTGCA | -0.243 | -0.13 | -0.524 | -0.777 | -0.196 | -1.03 | -0.554 | -0.172 | 0.0293 | -0.253
TGGCGGA | -0.135 | -0.199 | -0.333 | -0.242 | -0.102 | -0.586 | -0.0277 | -0.119 | -0.204 | -0.245
GTTTCAG | -0.0323 | 0.059 | 0.000434 | 0.245 | 0.0384 | -0.0875 | 0.15 | 0.0689 | 0.0955 | -0.0407
AAGAGAT | 0.051 | 0.0415 | 0.26 | 1.69 | 0.134 | 1.81 | 0.0448 | 0.0697 | -0.137 | 0.0455
GTAGGCA | 0.059 | 0.0195 | 0.387 | 0.975 | 0.065 | 1.17 | 0.0563 | -0.0196 | 0.0675 | 0.101
ATCGTCT | -0.0668 | -0.00953 | -0.155 | -1.84 | 0.0373 | -0.642 | -0.115 | -0.103 | -0.0764 | -0.102
GTATTGA | -0.00142 | 0.0473 | 0.243 | 0.76 | 0.015 | 0.764 | 0.127 | 0.104 | 0.103 | 0.111
GGATACA | 0.0936 | 0.0359 | 0.42 | 1.18 | -0.127 | 1.57 | 0.0992 | -0.0289 | -0.0146 | 0.108
TTAGGAG | 0.066 | -0.044 | -0.191 | -0.0834 | -0.00651 | -0.7 | 0.172 | 0.0934 | 0.0522 | 0.062
TACGGTC | 0.0619 | -0.0339 | 0.171 | 0.00554 | -0.0719 | 0.202 | -0.0462 | 0.0111 | -0.0446 | -0.0683
GCCGATA | 0.169 | 0.0437 | 0.0681 | 0.111 | -0.0156 | 0.341 | 0.167 | 0.128 | 0.0706 | 0.00163
GCTGACA | 0.0469 | 0.0543 | 0.052 | 0.511 | -0.0147 | 0.784 | 0.0685 | 0.00573 | 0.019 | 0.0538
AGCGTCT | -0.0248 | 0.0196 | -0.00467 | 0.363 | 0.0537 | 1.45 | -0.0537 | 0.0193 | -0.119 | 0.0549
CAGATGG | 0.0765 | -0.0277 | -0.22 | -0.14 | 0.0828 | -0.828 | 0.123 | 0.0263 | -0.127 | -0.0764
AACCTTG | -0.00362 | 0.0156 | -0.349 | -1.67 | 0.0472 | -0.894 | -0.0885 | 0.0124 | -0.0161 | 0.0647
GTATTAT | -0.0995 | 0.0132 | 0.321 | 0.848 | -0.0763 | 1.78 | -0.015 | 0.144 | 0.0697 | 0.162
TGAGGAG | 0.0529 | -0.0574 | 0.0979 | 0.85 | 0.00283 | 0.591 | 0.226 | 0.149 | -0.076 | 0.0705
GACAGAC | 0.0526 | 0.0126 | 0.429 | 1.26 | 0.0996 | 1.09 | 0.266 | 0.0638 | 0.0234 | 0.128
GCGGCTC | -0.0372 | 0.00985 | 0.23 | 0.73 | -0.158 | 1.55 | -0.0503 | -0.0102 | -0.0571 | 0.0719
GGGCACA | -0.0338 | 0.172 | 0.863 | 1.93 | -0.0299 | 2.26 | 0.286 | 0.0746 | 0.0909 | 0.0214
TGAGCAG | 0.109 | -0.0141 | -0.377 | -0.441 | -0.0378 | -0.897 | 0.0786 | -0.0171 | -0.0277 | -0.152
CATGGTC | -0.0317 | -0.0742 | -0.0359 | -0.0637 | -0.0926 | -0.591 | -0.1 | -0.0125 | -0.0748 | -0.0374
TGCGAAG | 0.123 | -0.0103 | -0.155 | 0.11 | -0.126 | -0.114 | 0.024 | -0.0811 | -0.105 | -0.0967
